According to PubChem BioAssay AID902 (National Center for Advancing Translational Sciences (NCATS), 2007):
Out of some 130,000 compounds screened, about 1,900 (1.5%) were called active. The shares of active, inactive and inconclusive entries below differ from those in the screen. The call rests on the fitted dose curve; in most records, active means well fitted cell-killing curve with a large enough effect; inconclusive means small, poorly fitted or top-dose-only effect; inactive means no such curve, though single readings can be large or run the other way. Potencies beside an inconclusive call are fits to weak or partial responses and may not hold up.

assay: qHTS Screen for Compounds that Selectively Target Cancer Cells with p53 Mutations: Cytotoxicity of p53ts Cells at the Nonpermissive Temperature; details: H1299-p53A138V viability at 39C, ATP luminescence, 24 h; activity change, negative = cell killing: at 46.1 µM (top of the series); further: nearly all actives have a fitted effect of over 55% in size
On the % scale 0 is the no-effect control and ±100 the full control effect; potency means the concentration at half of the fitted maximal effect; tags describe the fitted curve by direction and shape.

Compound | Potency | activity change, negative = cell killing
Cc1ccc(NC(=O)CSc2nnc3[nH]c(=O)cc(-c4ccccc4)n23)cc1Cl | active: 1.58 µM | –
CCCn1c(=O)c(C(=O)NCc2ccccn2)c(O)c2ccccc21 | inconclusive: 31.6 µM [cytotoxic, single point] | –
COc1ccc(-c2noc(CCC(=O)Nc3ccc(C(F)(F)F)cc3)n2)cc1 | inactive | –
COc1ccc(NC(=O)c2c(NC(=O)COc3ccccc3)sc3c2CCC(C)C3)cc1 (stereo unspecified) | inactive | –
O=C(Nc1ccccc1C(F)(F)F)c1ccc2oc(=O)c(S(=O)(=O)c3ccc(F)cc3)cc2c1 | active: 12.6 µM | –
COCCCNC(=O)c1ccc(-n2c(-c3ccccc3)cc3c2CCC(C)C3)cc1 (stereo unspecified) | – | inconclusive: -39.6% [cytotoxic]
O=c1cc(-c2ccccc2O)oc2cc(O)cc(O)c12 | inconclusive: 12.6 µM [cytotoxic, partial curve] | –
C=CCc1c(C)nc2nc(SCC(=O)Nc3ccc(C)c(C)c3)nn2c1C | active: 12.6 µM | –
Cc1ccc(NC(=O)c2ccc(CN3C(=O)CCn4nc(C)cc43)cc2)c(Cl)c1 | inconclusive: 0.141 µM [cytotoxic, full curve, poor fit] | –
CCCn1c(=O)c2sccc2n2c(CCCC(=O)Nc3ccc(Oc4ccc(Cl)cc4)cc3)nnc12 | inconclusive: 20 µM [cytotoxic, single point] | –
O=C(Nc1cccc2ccccc12)c1ccccc1 | – | inactive: 5.4% [at 9.22 µM]
COc1ccc(CCN2C(=O)c3oc4cc(C)cc(C)c4c(=O)c3C2c2ccccc2F)cc1OC (stereo unspecified) | inactive | –
C/C=C/c1ccc(OCCCCN2C(=O)NC(C)(C)C2=O)c(OC)c1 | inactive | –
CCn1c(C(=O)NCc2cc(Br)ccc2OC)cc2oc3ccccc3c21 | inconclusive: 12.6 µM [cytotoxic, partial curve] | –
O=C(C1CCCCC1)N1CCCC(c2nc3c(nnn3Cc3ccccc3)c(=O)[nH]2)C1 (stereo unspecified) | – | inconclusive: -77.5% [cytotoxic]
CC(C)(C)c1cc(C(=O)/C=C/c2ccc(C(=O)O)cc2)cc(C(C)(C)C)c1 | inconclusive: 31.6 µM [cytotoxic, single point] | –
Cc1ccc(OCC(=O)Nc2nc(-c3ccc(Br)cc3)ns2)cc1C | inconclusive: 31.6 µM [cytotoxic, single point] | –
Cc1ccccc1OCC(=O)Nc1ccc2nc(SCc3ccccc3)sc2c1 | inactive | –
COc1cc2c(cc1OC)n(Cc1ccc([N+](=O)[O-])cc1)c(=O)n1nc(-c3ccccc3)nc21 | inconclusive: 12.6 µM [cytotoxic, partial curve, poor fit] | –
O=c1c(-c2ccc(F)cc2)nc2cnc(N3CCNCC3)nc2n1Cc1cccs1 | inconclusive: 20 µM [cytotoxic, single point] | –
CCCN(CCC)CC(O)Cn1cc(/C=C/C(=O)c2ccc(Br)cc2)c2ccccc21 (stereo unspecified) | active: 7.94 µM | –
O=C(CSc1nc2ccccc2nc1SCC(=O)N1CCOCC1)N1CCOCC1 | inactive | –
CCc1ccc(NC(=O)Cn2c(=O)n(-c3ccc(OC)cc3)c(=O)c3ccc(C(=O)NCc4ccc(C)cc4)cc32)cc1 | active: 3.16 µM | –
OC(COc1ccc(Cl)cc1)CN1C2=NCCCN2c2ccccc21 (stereo unspecified) | inconclusive: 20 µM [cytotoxic, single point] | –

Compound | Potency | activity change, negative = cell killing
COc1cc2c(cc1OC)C1C(=O)c3ccc4c(c3OC1CO2)C=CC(C)(C)O4 (stereo unspecified) | inconclusive: 31.6 µM [cytotoxic, partial curve] | –
Cc1nc2sc(C(c3ccco3)N3CCC(C)CC3)c(O)n2n1 (stereo unspecified) | inconclusive: 12.6 µM [cytotoxic, single point] | –
CSc1nc2ccc(NC(=O)C3CCCO3)cc2s1 (stereo unspecified) | inconclusive: 10 µM [cytotoxic, partial curve] | –
Cc1ccc(S(=O)(=O)C(CNC(=O)C(=O)NCc2ccccc2C)c2cccs2)cc1 (stereo unspecified) | inactive | –
COc1cc(OC)cc(C(=O)N2CCN(C(=O)COc3ccc4ccccc4c3)CC2)c1 | inconclusive: 12.6 µM [cytotoxic, single point] | –
N#CCCn1c(=O)c(-c2cc(F)cc(F)c2)nc2cnc(OCc3ccccc3)nc21 | inconclusive: 15.8 µM [cytotoxic, single point] | –
CC(C)OC(=O)c1c(-c2ccccc2)c(-c2ccccc2)nn(C)c1=O | inconclusive: 0.0112 µM [cytotoxic, full curve] | –
O=c1ccc(-c2ccccc2)nn1Cc1ccc(F)cc1Cl | inconclusive: 31.6 µM [cytotoxic, partial curve, poor fit] | –
Cc1cccc(-n2ncc3c(N4CCCC(C)C4)ncnc32)c1 (stereo unspecified) | active: 2.51 µM | –
CCOc1ccc2nc(N3CCCC(C(=O)Nc4cc(Cl)c(OC)cc4OC)C3)sc2c1 (stereo unspecified) | inconclusive: 15.8 µM [cytotoxic, partial curve] | –
CCc1c(C)c2cc3c(c(C)c2oc1=O)OCN(CCc1ccc(OC)c(OC)c1)C3 | inactive | –
Cc1ccc(C)c(N2CCN(CCCNC(=O)c3ccc4nc(N5CCC(C)CC5)sc4c3)CC2)c1 | active: 12.6 µM | –
COc1ccccc1NC(=O)CN1CCN(CC(=O)Nc2ccc3c(c2)OCCO3)CC1 | active: 25.1 µM | –
O=C(Nc1nc2ccccc2[nH]1)c1ccc(F)cc1 | active: 2 µM | –
CCN(c1ccccc1)S(=O)(=O)c1ccc(NC(=O)c2nc(S(C)(=O)=O)ncc2Cl)cc1 | active: 3.16 µM | –
Cc1cccc(CNS(=O)(=O)c2ccc(-c3coc(C)n3)cc2)c1 | inconclusive: 0.0126 µM [cytotoxic, full curve, poor fit] | –
COc1ccc(CNC(=O)C(C#N)c2nc3ccccc3nc2N2CCN(C)CC2)cc1 (stereo unspecified) | inactive | –
COc1ccc2[nH]cc(CCNC(=O)Nc3cc(C)cc(C)c3)c2c1 | active: 12.6 µM | –
Clc1ccc(CSc2nncn3c2cc2occc23)cc1 | inconclusive: 20 µM [cytotoxic, partial curve] | –
CC1=C(c2ccc(Cl)cc2)S(=O)(=O)N=C1N1CCN(c2cc(C)ccc2C)CC1 | inactive | –
Clc1ccc(-c2cn3cc(Cc4ccccc4)sc3n2)cc1 | active: 6.31 µM | –
O=C(Cc1ccc(Cl)cc1)Nc1ccc2oc(-c3ccc(F)cc3)nc2c1 | inactive | –
Cc1ccc(N2CCN(C(=O)c3c(C)oc4ncnc(N5CCCCC5)c34)CC2)c(C)c1 | active: 20 µM | –
COc1ccc(NC(=O)CSc2nc3c(oc4ccccc43)c(=O)n2-c2ccccc2)cc1OC | inactive | –

Compound | Potency | activity change, negative = cell killing
CCC(C)NC(=O)c1ccc2c(c1)nc1n2CCCCC1 (stereo unspecified) | inconclusive: 12.6 µM [cytotoxic, partial curve] | –
Cn1c(C(=O)Nc2ccc3c(c2)OCO3)cc2sccc21 | active: 15.8 µM | –
Cc1ccc(NC(=O)c2cc(S(=O)(=O)N3CCCCCC3)ccc2F)cc1F | inconclusive: 0.631 µM [cytotoxic, full curve, poor fit] | –
Nc1nc2nccc(-c3ccc(Cl)cc3)n2n1 | inconclusive: 15.8 µM [cytotoxic, single point] | –
COc1ccc(Cl)cc1N=C1NC(=O)CC(C(=O)Nc2ccccc2C(F)(F)F)S1 (stereo unspecified) | inactive | –
CCc1ccccc1N1CC(c2nc3ccccc3n2CCOc2ccc(Cl)c(C)c2)CC1=O (stereo unspecified) | active: 31.6 µM | –
CC(=O)N1CCc2cc(Br)cc(S(=O)(=O)NCCc3ccc(Cl)cc3)c21 | inconclusive: 0.316 µM [cytotoxic, partial curve, poor fit] | –
CCCOC(=O)c1ccc(Oc2c(-c3ccc(OCC)cc3O)n[nH]c2C)cc1 | inconclusive: 31.6 µM [cytotoxic, single point] | –
CN(Cc1ccccc1)S(=O)(=O)c1nnc(NC(=O)c2ccccc2Cl)s1 | – | inconclusive: -32.4% [cytotoxic]
Cc1cc(N2CCN(C)CC2)nc2ccc(NC(=O)Nc3ccc(F)cc3F)cc12 | inconclusive: 20 µM [cytotoxic, partial curve, poor fit] | –
COc1cccc(-c2ccc3c(N)c(C(=O)c4ccc(F)cc4)sc3n2)c1 | inconclusive: 15.8 µM [cytotoxic, single point] | –
CC(C)c1ccc(NC(=O)c2cc(S(=O)(=O)N3CCc4ccccc4C3)ccc2F)cc1 | active: 31.6 µM | –
C=CCOCC1CN2C(CCC(C)C2c2ccc(Br)cc2)C(=O)O1 (stereo unspecified) | – | inactive: 2.36% [at 9.22 µM]
Cc1cccc2nc(=S)n(C(=O)c3ccco3)n12 | inactive | –
CCC(=O)Nc1cccc(NC(=O)c2ccc3c(c2)OCCO3)c1 | inconclusive: 15.8 µM [cytotoxic, partial curve] | –
COC(=O)c1ccc(COC(=O)c2c(C)nn(Cc3ccccc3Cl)c2Cl)o1 | inconclusive: 31.6 µM [cytotoxic, partial curve, poor fit] | –
Nc1ncnc2c1nc(Br)n2C1OC(CO)C(O)C1O (stereo unspecified) | inconclusive: 15.8 µM [cytotoxic, partial curve] | –
CCOc1ccc(CN2C(=O)c3ccccc3Sc3ccc(C(=O)NCCCN4CCOCC4)cc32)cc1 | inconclusive: 12.6 µM [cytotoxic, single point] | –
COc1ccc(/C=C/C(=O)c2cccs2)cc1OC | active: 15.8 µM | –
O=C(CSc1ncc(-c2ccc(Cl)cc2)[nH]1)Nc1ccccc1F | inconclusive: 25.1 µM [cytotoxic, single point] | –
N#Cc1c(C(F)(F)F)cc(-c2ccco2)nc1SCc1ccccn1 | inactive | –
Cc1ccc2[nH]c(=O)c3cc(C(=O)NCc4cccc(Cl)c4)sc3c2c1 | inactive | –
Cc1cc(C)c(/C=C/c2onc(C)c2S(=O)(=O)N2CCC(C(=O)Nc3cccc(C)c3C)CC2)c(C)c1 | inconclusive: 0.0032 µM [cytotoxic, full curve, poor fit] | –
